About 1,700 (3.3%) of roughly 52,000 compounds were called active. Rule as the data show it: active = survival mostly below about 52% (no sharp cut-off); inactive = mostly above about 56%. This is one part of the list.
Each compound was assayed on Wild type (assay: growth inhibition of S. aureus wild type versus tarO mutant, primary screen, teichoic acid synthesis inhibitors, RN4220, OD600 (AID 463173)). Conditions: S. aureus RN4220 wild type/DeltatarO growth, OD600, 18 h, hits give low values, screened at 18.75 µg/mL (by protocol).
With `COC(=O)/C=c1\sc2nc(N)nn2c1=O` the survival was inactive: 102%. `CN1CCN(C(=O)Cn2ncc3c4ccccc4n(Cc4ccc(Cl)cc4)c3c2=O)CC1` was tested, and the survival was inactive: 84%. `Cc1cc(C)c(NC(=O)c2c(C)nn(-c3ccc(F)cc3)c2-n2cccc2)c(C)c1` was tested, and the survival was inactive: 81%. With `O=C(CCSCc1ccc(Cl)cc1)NCc1ccc(F)cc1Cl` the survival was inactive: 79%. In the case of `CS(=O)(=O)N1CCc2cc(C(=O)N3CCN(c4ccccc4F)CC3)ccc21`, the survival is reported as inactive: 89%. In the case of `COc1ccc(Nc2cc(C(=O)NC3CCCC3)c3ccccc3n2)cc1`, the survival is reported as inactive: 84%. `COc1ccc(C2C=C(c3ccc(Br)cc3)Nc3nnnn32)c(OC)c1` (stereo not drawn) was tested, and the survival was inactive: 66%. `COc1ccccc1CNc1nc2c(S(=O)(=O)c3ccccc3)nnn2c2ccc(Cl)cc12` was tested, and the survival was inactive: 88%. In the case of `Cc1ccc(NC(=O)c2c(NC(=O)c3ccccc3Cl)sc3c2CCC3)cc1`, the survival is reported as inactive: 129%. For `O=C(NC1CCCCC1)c1ccc(CSc2nc3ccncc3n2Cc2ccc(F)cc2)cc1`, the survival was inactive: 77%. `CCc1nn2c(=O)c(S(=O)(=O)Nc3ccc(Br)cc3F)c(C)nc2s1` was tested, and the survival was inactive: 61%. With `Cc1ccccc1NC(=O)Cn1nnc(C(=O)NCCc2ccccc2)c1N` the survival was inactive: 109%. For `CC(C)C(=O)Nc1ccc(-c2cn3ccccc3n2)cc1`, the survival was inactive: 117%. `NC(=O)c1nn2c(C(F)(F)F)cc(-c3ccc(Br)cc3)nc2c1Cl` was tested, and the survival was inactive: 88%. With `CC(=O)c1cccc(NC(=O)Cn2nc(C(F)(F)F)c3c2CCC3)c1` the survival was inactive: 88%. `Cc1ccc2nc(Cl)c3cc(C(=O)NCCCN(C)Cc4ccccc4)sc3c2c1` was tested, and the survival was active: -3%. `c1coc(C2Nc3cccc4cccc(c34)N2)c1` was tested, and the survival was inactive: 116%. In the case of `O=C(Cn1c(C(=O)N(Cc2ccco2)CC2CCCO2)cc2sccc21)c1ccccc1` (stereo not drawn), the survival is reported as inactive: 120%. In the case of `CSc1nc(=O)c2c(n1C)NC(=O)CC2c1cc(F)cc(F)c1` (stereo not drawn), the survival is reported as inactive: 83%. With `CC(=O)Nc1ccc(Oc2nc(C)cc(C)n2)cc1` the survival was inactive: 111%. With `Cc1ccc(C)c(N(C)C(=O)Cc2c(C(=O)O)[nH]c3ccc(Cl)cc23)c1` the survival was inactive: 56%. With `CC(C)(C)CC(C)(C)c1ccc(OCC(=O)Nc2ccc(S(=O)(=O)Nc3ncccn3)cc2)cc1` the survival was inactive: 82%. In the case of `OC(CN1CCNCC1)Cn1c2ccccc2c2ccccc21` (stereo not drawn), the survival is reported as inactive: 115%. In the case of `COc1ccc(C2C(C(=O)Nc3ccc(C)cc3C)=C(C)Nc3nc(SCc4cccc(C)c4)nn32)c(OC)c1` (stereo not drawn), the survival is reported as inactive: 146%. `COc1ccc(N2CCN(S(=O)(=O)c3ccc(-c4cnc(C5CC5)o4)cc3)CC2)cc1` was tested, and the survival was inactive: 71%. In the case of `COc1cccc(CNC(=O)CN2C(=O)N(c3cccc(Cl)c3)S(=O)(=O)c3ccccc32)c1OC`, the survival is reported as inactive: 75%. `COc1ccccc1-c1nn2c(=O)cc(CN3CCN(C(=O)/C=C/c4ccccc4)CC3)nc2s1` was tested, and the survival was inactive: 74%. With `CN(C)c1ccc(Nc2nc3ccccc3n3nnnc23)cc1` the survival was inactive: 107%. With `COc1ccccc1CNC(=O)CSc1nc(=O)[nH]c2c1CCC2` the survival was inactive: 70%. With `CC1=C(C(=O)Nc2ccc(C)cc2C)C(c2ccc(Br)cc2)n2ncc(C(=O)Nc3cccc(C)c3)c2N1` (stereo not drawn) the survival was inactive: 133%. With `Cc1[nH]c2ccc(-c3nnc(SCC(=O)N4c5ccccc5CCc5ccccc54)o3)cc2c1C` the survival was inactive: 101%. In the case of `CCc1ccc(S(=O)(=O)NCc2nc3cccnc3n2Cc2cccc(OC)c2)cc1`, the survival is reported as inactive: 72%. In the case of `CCCCCn1c(CNC(=O)c2ccccc2)nc2ccccc21`, the survival is reported as inactive: 89%. With `CCOc1ccc(NC(=O)Cn2c(=O)n(CCCCC(=O)NCc3ccc4c(c3)OCO4)c(=O)c3ccccc32)cc1` the survival was inactive: 112%. With `CCN(CC)c1ccc(-n2nc3cc(C)c(NC(=O)c4ccccc4C)cc3n2)c(C)c1` the survival was inactive: 95%. `Cc1ccccc1Cn1c(=O)n(CC2CCC(C(=O)N3CCOCC3)CC2)c(=O)c2sccc21` (stereo not drawn) was tested, and the survival was inactive: 85%. For `CCN(CC)S(=O)(=O)c1cccc(C(=O)Oc2cccnc2)c1`, the survival was inactive: 109%. In the case of `COc1ccc(S(=O)(=O)c2nnn(-c3ccc(C(C)C)cc3)c2C)cc1`, the survival is reported as inactive: 78%. With `Cc1c(Cl)cccc1Nc1nn2c(=O)c3ccc(C(=O)NCCC4=CCCCC4)cc3nc2s1` the survival was inactive: 74%. With `Cc1cc(C)c(S(=O)(=O)N2CCN(Cc3ccc4c(c3)OCO4)CC2)cc1C` the survival was active: 9%. With `COc1ccc(CCNC(=O)Cc2c(C)c3cc4c(C)coc4cc3oc2=O)cc1OC` the survival was inactive: 102%. `CN(C(=O)c1cc2nc(-c3ccco3)cc(C(F)(F)F)n2n1)C12CC3CC(CC(C3)C1)C2` was tested, and the survival was inactive: 110%. For `Cc1ccc(-n2c(=O)c3c(C)c(C)sc3n(Cc3ccc(F)cc3Cl)c2=O)cc1C`, the survival was inactive: 60%. `CCOc1ccc(C2C(=O)N(C3CCCCC3)CC(=O)N2CCc2ccccc2)cc1OC` (stereo not drawn) was tested, and the survival was inactive: 117%. `COC(=O)CN(c1ccccc1Cl)S(C)(=O)=O` was tested, and the survival was inactive: 105%. `Oc1ccc(-c2nc3ccc(Cl)cn3c2Nc2ccc3c(c2)OCO3)cc1` was tested, and the survival was inactive: 92%. In the case of `CC(=O)c1ccc(NC(=O)Cn2ncc3c4ccccc4n(Cc4ccccc4)c3c2=O)cc1`, the survival is reported as inactive: 84%. In the case of `Cc1cc(C)c(NS(=O)(=O)c2ccc(-c3coc(C)n3)cc2)c(C)c1`, the survival is reported as inactive: 67%. With `COc1cc(C(=O)NCc2nc3cccnc3n2Cc2ccc(C)cc2)cc(OC)c1OC` the survival was inactive: 92%. With `FC(F)(F)C(F)(F)C(F)(F)c1nnc2ccc(N3CCOCC3)nn12` the survival was inactive: 103%. With `O=C(NCc1ccc(Cl)cc1)C1CCN(S(=O)(=O)c2ccccc2)CC1` the survival was inactive: 124%. `COc1ccc(N(C(=O)c2ccccc2)S(=O)(=O)c2ccc3c(c2)n(C)c(=O)n3C)cc1` was tested, and the survival was inactive: 72%. In the case of `COc1ccccc1CNC(=O)CCn1cnc2ccccc2c1=O`, the survival is reported as active: -6%. With `O=C(NC1CC(=O)N(c2ccc(F)cc2)C1)c1ccc2c(c1)OCO2` (stereo not drawn) the survival was inactive: 71%. In the case of `O=C(c1ccc2c(c1)N(Cc1cccc(Cl)c1)C(=O)c1ccccc1S2=O)N1CCN(c2cccc(C(F)(F)F)c2)CC1` (stereo not drawn), the survival is reported as inactive: 90%. With `Cc1ccc(N(C)C(=O)CN2C(=O)CCc3cc(S(=O)(=O)N4CCOCC4)ccc32)cc1` the survival was inactive: 93%. `O=C(N=Nc1[nH]c2ccccc2c1O)c1ccc(Cl)cc1` was tested, and the survival was inactive: 106%. `Cc1cccc(Cn2nnc3c(=O)[nH]c(C4CCCN(C(=O)c5ccccc5Cl)C4)nc32)c1` (stereo not drawn) was tested, and the survival was inactive: 93%. In the case of `CCN1CCN(C(c2ccccc2Cl)c2c(O)cc(C)n(Cc3ccco3)c2=O)CC1` (stereo not drawn), the survival is reported as inactive: 75%. For `O=C(Cn1c(=O)n2nc(-c3cccc(F)c3)nc2c2ccccc21)N1CCN(c2ccc(F)cc2)CC1`, the survival was inactive: 97%. With `Cn1c(=O)c2c(ncn2Cc2ccc(Cl)cc2)n(C)c1=O` the survival was inactive: 85%. For `CC1CCN(C(=O)C(C)NCc2ccc(F)cc2)CC1` (stereo not drawn), the survival was inactive: 106%. `COc1ccc(N=C2SCC(=O)N2C)cc1` was tested, and the survival was inactive: 107%. With `COc1ccc(N2CCN(C(=O)CNS(=O)(=O)c3ccc(Br)s3)CC2)cc1` the survival was inactive: 61%. `N#Cc1nc(/C=C/c2ccc(F)cc2)oc1NCc1ccc(F)cc1` was tested, and the survival was inactive: 79%. `Cc1cccc(N2CCN(C(=O)c3noc4c3CCCCC4)CC2)c1C` was tested, and the survival was inactive: 94%. In the case of `CC(NC(=O)c1ccc(F)cc1)c1nc2ccccc2[nH]1` (stereo not drawn), the survival is reported as inactive: 68%. In the case of `CCc1ccc(NC(=O)Cn2c(=O)n(-c3cc(OC)c(OC)c(OC)c3)c(=O)c3ccccc32)cc1`, the survival is reported as inactive: 92%. In the case of `Cc1cc(C(=O)C(=O)Nc2nncs2)c(C)n1-c1ccc(Cl)cc1`, the survival is reported as inactive: 85%. With `COc1ccccc1NC(=O)c1cn(-c2ccccc2)nc1-c1ccccc1` the survival was inactive: 81%. With `O=C(CNC(=O)c1ccc(F)cc1)OCc1cc(=O)n2nc(C3CCCCC3)sc2n1` the survival was inactive: 99%. In the case of `COc1ccc(OC)c(NC(=O)CN2CCCN(Cc3ccccc3Cl)S2(=O)=O)c1`, the survival is reported as inactive: 133%. With `COc1ccc(NC(=O)C2C3C=CC(O3)C2C(=O)NCc2cccnc2)cc1` (stereo not drawn) the survival was inactive: 100%. `CCOc1cc(CNC(=O)c2ccc3c(c2)N(C)C(=O)C2CCCCN32)ccc1OC` (stereo not drawn) was tested, and the survival was inactive: 88%. In the case of `CCOc1ccccc1C(=O)NCc1nc2cccnc2n1Cc1ccc(C)cc1`, the survival is reported as inactive: 131%. With `COc1ccc(CNC(=O)CCCn2nc(C)c3c(C)n(-c4ccc(C)cc4)nc3c2=O)cc1OC` the survival was inactive: 71%. In the case of `Cc1ccc(N2CCN(C(=O)c3cnn(-c4ccc(C)c(C)c4)c3C3CCNCC3)CC2)c(C)c1`, the survival is reported as inactive: 65%. `Cc1ccc(-n2ncc3c(NC4CCCCC4)ncnc32)cc1Cl` was tested, and the survival was inactive: 72%. In the case of `COc1cc(S(=O)(=O)N(CCc2ccccc2)Cc2cccs2)ccc1-n1cnnn1`, the survival is reported as inactive: 108%. `CCN(c1ccccc1)c1nnc(NC(=O)Nc2ccc(Br)c(C)c2)s1` was tested, and the survival was inactive: 89%. For `O=C(c1ccc2c(Cl)c3c(nc2c1)CCCC3)N1CCN(c2cccc(C(F)(F)F)c2)CC1`, the survival was inactive: 85%. In the case of `O=C(CSc1nccn1Cc1ccco1)Nc1cc(C(F)(F)F)ccc1Cl`, the survival is reported as inactive: 71%. In the case of `CCOc1ccc(CNC(=O)CCS(=O)(=O)c2cc3c4c(c2)CCN4C(=O)CC3)cc1OC`, the survival is reported as inactive: 85%. For `O=C(CN1C(=O)COc2ccc(S(=O)(=O)N3CCCCCC3)cc21)N1CCN(c2ccccc2F)CC1`, the survival was inactive: 73%. With `CCc1ccc(S(=O)(=O)c2cn(CC)c3cc(N4CCCCC4)c(F)cc3c2=O)cc1` the survival was inactive: 68%. In the case of `COc1ccc2nc(NC(=O)c3cc(=O)c4cc(C)cc(C)c4o3)sc2c1`, the survival is reported as inactive: 82%. `Cc1ccc(CNC(=O)CN2CCN(Cc3ccc(F)cc3Cl)C2=O)cc1` was tested, and the survival was inactive: 81%. With `CC(C)C(=O)N1CCC(c2nc(-c3ccc(F)cc3)no2)CC1` the survival was inactive: 111%.

Source: PubChem BioAssay AID463173 (ICCB-Longwood Screening Facility, Harvard Medical School, 2010)
